Data published in the supplement of paper PMC4967469.
pIC50: −log10 of the molar value. A lower IC50 marks a more sensitive line; a fit beyond the top or the lowest dose is shown as a bound at that dose. The AUC spans the tested range (256-fold, ending at the top dose) of the same fit; it is 1 without any effect and falls as sensitivity rises. For part of these data: Any top dose called inferred was derived from the fitted curves, not read from the paper.

Assays:
Assay in all cases: Viability of human cancer cell lines after 72 h of drug (GDSC screen)
[1] = compound: CO[C@@]12[C@H](COC(N)=O)C3=C(C(=O)C(C)=C(N)C3=O)N1C[C@@H]1N[C@@H]12 [Mitomycin C]; conditions: top dose 16 µM
Experimental: (§1)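 Human cancer cell lines in 384-well plates, medium with 10% serum, drug for 72 h over a 256-fold dose range (nine 2-fold or five 4-fold steps up to the top dose). Adherent lines were fixed and stained with the nucleic acid dye Syto60, suspension lines read with resazurin; signal relative to control wells, capped at 0 and 100%. One two-parameter sigmoid per drug and line, fitted in a mixed model over all curves with the slope shared within a line.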

[2] = compound: O=C(O)CNC(=O)c1c(O)c2ccccc2n(Cc2ccccc2)c1=O [IOX2]; conditions: top dose 0.1 µM; top dose inferred
Experimental: as §1

[3] = compound: COc1cc(Nc2c(C#N)cnc3cc(OCCCN4CCN(C)CC4)c(OC)cc23)c(Cl)cc1Cl [Bosutinib]; conditions: top dose 2 µM
Experimental: as §1

[4] = compound: CO[C@@H]1[C@H](N(C)C(=O)c2ccccc2)C[C@H]2O[C@]1(C)n1c3ccccc3c3c4c(c5c6ccccc6n2c5c31)C(=O)NC4 [Midostaurin]; conditions: top dose 0.512 µM; top dose inferred
Experimental: as §1

[5] = compound: Cc1ccc(C(=O)Nc2cccc(C(F)(F)F)c2)cc1Nc1nc(-c2cccnc2)nc2c1cnn2C [NVP-BHG712]; conditions: top dose 10.24 µM; top dose inferred
Experimental: as §1

Cell Line	AUC [1]	pIC50 [1]	AUC [2]	pIC50 [2]	AUC [3]	pIC50 [3]	AUC [4]	pIC50 [4]	AUC [5]	pIC50 [5]
SR (lymphoid neoplasm, suspension)	0.059	> 7.20	0.987	< 7.00	0.925	< 5.70	0.868	6.41	0.824	5.28
SU8686 (pancreas, adherent)	0.385	6.33	0.941	< 7.00	0.934	< 5.70	0.954	< 6.29	0.969	< 4.99
SU-DHL-5 (B-cell lymphoma, suspension)	0.073	7.17	0.994	< 7.00	0.852	6.00	0.864	6.56	0.686	5.74
SUIT-2 (pancreas, adherent)	0.267	6.68	0.985	< 7.00	0.921	< 5.70	0.911	< 6.29	0.632	5.82
SUP-M2 (anaplastic large cell lymphoma, suspension)	0.341	6.39	0.994	< 7.00	0.933	< 5.70	0.957	< 6.29	0.919	5.04
SW13 (adrenal gland, adherent)	0.404	6.26	0.986	< 7.00	0.764	–	0.956	< 6.29	0.988	< 4.99
SW48 (large intestine, adherent)	0.268	6.66	0.982	< 7.00	0.884	< 5.70	0.736	6.82	0.952	< 4.99
SW626 (ovary, adherent)	0.333	6.50	0.981	< 7.00	0.957	< 5.70	0.909	< 6.29	0.83	5.09
SW756 (cervix, adherent)	0.439	6.18	0.982	< 7.00	0.569	6.70	0.984	< 6.29	0.98	< 4.99
SW780 (bladder, adherent)	0.784	5.13	0.983	< 7.00	0.906	< 5.70	0.846	6.37	0.975	< 4.99
SW948 (large intestine, adherent)	0.698	5.33	0.979	< 7.00	0.975	< 5.70	0.933	< 6.29	0.867	< 4.99
SW982 (soft tissue, adherent)	0.175	7.00	0.977	< 7.00	0.925	< 5.70	0.543	7.38	0.948	< 4.99
SW1271 (small cell lung carcinoma, adherent)	0.568	5.80	0.968	< 7.00	0.965	< 5.70	0.706	6.87	0.61	5.87
